# According to the supplement of paper PMC8728848:
# Many of the other results were omitted from the sample, so the strongest signals are more common in it than they were.
# What was measured:
# Assay in all cases: glycan array binding signal (z-score within array); higher = stronger binding
# Conditions in all cases: glycan notation: IUPAC condensed, linker removed
# [1] = biological target: Fuc(a1-2)Gal(b1-3)GalNAc
# How it was run: (§1)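 The Consortium for Functional Glycomics database supplied 3228 glycan arrays, of which those lacking an available protein sequence were dropped. The binding signal, a within-array Z-score, was averaged across arrays of the same protein sequence and across linkers. Negative scores can be read as non-binding.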
# [2] = biological target: Fuc(a1-2)Gal(b1-3)GalNAc(b1-3)Gal
# How it was run: as §1
# [3] = biological target: Fuc(a1-2)Gal(b1-3)GlcNAc(b1-3)[Fuc(a1-2)Gal(b1-3)GlcNAc(b1-6)]GalNAc
# How it was run: as §1
# [4] = biological target: Fuc(a1-2)[Gal(a1-3)]Gal(b1-3)GalNAc(b1-3)Gal(a1-4)Gal(b1-4)Glc
# How it was run: as §1
# [5] = biological target: Fuc(a1-2)[GalNAc(a1-3)]Gal(b1-3)GalNAc(b1-3)Gal(a1-4)Gal(b1-4)Glc
# How it was run: as §1
# [6] = biological target: Fuc(a1-2)[GalNAc(a1-3)]Gal(b1-4)GlcNAc(b1-2)Man(a1-3)[Fuc(a1-2)[GalNAc(a1-3)]Gal(b1-4)GlcNAc(b1-2)Man(a1-6)]Man(b1-4)GlcNAc(b1-4)[Fuc(a1-6)]GlcNAc
# How it was run: as §1
# [7] = biological target: Fuc(a1-2)[GalNAc(a1-3)]Gal(b1-4)GlcNAc(b1-3)Gal(b1-4)GlcNAc
# How it was run: as §1
# [8] = biological target: Fuc(a1-2)[GalNAc(a1-4)]Gal(b1-4)GlcNAc
# How it was run: as §1
# [9] = biological target: Fuc(a1-3)[Gal(b1-4)]GlcNAc(b1-3)Gal(b1-3)[Fuc(a1-4)]GlcNAc
# How it was run: as §1
# [10] = biological target: Gal(a1-2)Gal
# How it was run: as §1
# [11] = biological target: Gal(a1-3)Gal(b1-3)GlcNAc(b1-2)Man
# How it was run: as §1
# [12] = biological target: Gal(a1-3)Gal(b1-4)GlcNAc
# How it was run: as §1
# [13] = biological target: Gal(a1-4)Gal(b1-3)GlcNAc(b1-2)Man(a1-3)[Gal(a1-4)Gal(b1-3)GlcNAc(b1-2)Man(a1-6)]Man(b1-4)GlcNAc(b1-4)GlcNAc
# How it was run: as §1
# [14] = biological target: Gal(a1-4)GlcNAc
# How it was run: as §1
# [15] = biological target: Gal(b1-3)GalNAc(b1-3)Gal
# How it was run: as §1
# [16] = biological target: Gal(b1-3)GlcNAc(b1-2)[Gal(b1-3)GlcNAc(b1-6)]Man(a1-6)[Gal(b1-3)GlcNAc(b1-2)Man(a1-3)]Man(b1-4)GlcNAc(b1-4)GlcNAc
# How it was run: as §1
# [17] = biological target: Gal(b1-3)GlcNAc(b1-3)Gal(b1-4)[Fuc(a1-3)]GlcNAc
# How it was run: as §1
# [18] = biological target: Gal(b1-4)GlcNAc(b1-2)Man(a1-3)Man(b1-4)GlcNAc(b1-4)GlcNAc
# How it was run: as §1
# [19] = biological target: Gal(b1-4)GlcNAc(b1-2)Man(a1-3)[Man(a1-6)]Man(b1-4)GlcNAc(b1-4)GlcNAc
# How it was run: as §1
# [20] = biological target: Gal(b1-4)GlcNAc(b1-2)Man(a1-6)[GlcNAc(b1-2)Man(a1-3)]Man(b1-4)GlcNAc(b1-4)GlcNAc
# How it was run: as §1
# [21] = biological target: Gal(b1-4)GlcNAc(b1-2)[Gal(b1-4)GlcNAc(b1-4)]Man(a1-3)[GlcNAc(b1-4)][Gal(b1-4)GlcNAc(b1-2)Man(a1-6)]Man(b1-4)GlcNAc(b1-4)GlcNAc
# How it was run: as §1
# [22] = biological target: Gal(b1-4)GlcNAc(b1-3)Gal(b1-4)GlcNAc(b1-3)Gal(b1-4)GlcNAc(b1-2)Man(a1-3)[Gal(b1-4)GlcNAc(b1-3)Gal(b1-4)GlcNAc(b1-3)Gal(b1-4)GlcNAc(b1-2)Man(a1-6)]Man(b1-4)GlcNAc(b1-4)[Fuc(a1-6)]GlcNAc
# How it was run: as §1
# [23] = biological target: Gal(b1-4)GlcNAc(b1-3)Gal(b1-4)GlcNAc(b1-3)Gal(b1-4)GlcNAc(b1-3)Gal(b1-4)GlcNAc(b1-3)Gal(b1-4)GlcNAc(b1-3)Gal(b1-4)GlcNAc(b1-2)Man(a1-3)[Gal(b1-4)GlcNAc(b1-3)Gal(b1-4)GlcNAc(b1-3)Gal(b1-4)GlcNAc(b1-3)Gal(b1-4)GlcNAc(b1-3)Gal(b1-4)GlcNAc(b1-3)Gal(b1-4)GlcNAc(b1-2)Man(a1-6)]Man(b1-4)GlcNAc(b1-4)GlcNAc
# How it was run: as §1
# [24] = biological target: Gal(b1-4)GlcNAc(b1-3)Gal(b1-4)GlcNAc(b1-3)[Gal(b1-4)GlcNAc(b1-3)Gal(b1-4)GlcNAc(b1-6)]GalNAc
# How it was run: as §1
# [25] = biological target: GalNAc(a1-3)Gal
# How it was run: as §1
# [26] = biological target: GalNAc(a1-3)GalNAc
# How it was run: as §1
# [27] = biological target: GalNAc(a1-3)GalNAc(a1-3)Gal(a1-4)Gal(b1-4)GlcNAc
# How it was run: as §1
# [28] = biological target: GalNAc(a1-3)GalNAc(b1-3)Gal(a1-4)Gal(b1-4)Glc
# How it was run: as §1
# [29] = biological target: GalNAc(b1-4)GlcNAc
# How it was run: as §1
# [30] = biological target: GalNAc(b1-4)GlcNAc(b1-2)Man
# How it was run: as §1
# [31] = biological target: GalNAc(b1-4)GlcNAc(b1-2)Man(a1-3)[GalNAc(b1-4)GlcNAc(b1-2)Man(a1-6)]Man(b1-4)GlcNAc(b1-4)GlcNAc
# How it was run: as §1
# [32] = biological target: GalNAc(b1-4)GlcNAc(b1-3)GalNAc(b1-4)GlcNAc
# How it was run: as §1
# [33] = biological target: GalNAc(b1-4)GlcNAc6S
# How it was run: as §1
# [34] = biological target: GlcNAc(b1-2)[GlcNAc(b1-4)]Man(a1-3)[GlcNAc(b1-4)][GlcNAc(b1-2)[GlcNAc(b1-6)]Man(a1-6)]Man(b1-4)GlcNAc(b1-4)GlcNAc
# How it was run: as §1
# [35] = biological target: GlcNAc(b1-3)Gal(b1-4)GlcNAc(b1-3)Gal(b1-4)GlcNAc(b1-2)Man(a1-3)[GlcNAc(b1-3)Gal(b1-4)GlcNAc(b1-3)Gal(b1-4)GlcNAc(b1-2)Man(a1-6)]Man(b1-4)GlcNAc(b1-4)GlcNAc
# How it was run: as §1
# [36] = biological target: GlcNAc(b1-3)Gal(b1-4)GlcNAc(b1-3)Gal(b1-4)GlcNAc(b1-2)[GlcNAc(b1-3)Gal(b1-4)GlcNAc(b1-3)Gal(b1-4)GlcNAc(b1-6)]Man(a1-6)[GlcNAc(b1-3)Gal(b1-4)GlcNAc(b1-3)Gal(b1-4)GlcNAc(b1-2)Man(a1-3)]Man(b1-4)GlcNAc(b1-4)[Fuc(a1-6)]GlcNAc
# How it was run: as §1
# [37] = biological target: GlcNAc(b1-3)[GlcNAc(b1-6)]GlcNAc(b1-4)GlcNAc
# How it was run: as §1
# [38] = biological target: GlcNAc(b1-4)GlcNAc(b1-4)GlcNAc(b1-4)GlcNAc(b1-4)GlcNAc
# How it was run: as §1
# [39] = biological target: Man(a1-2)Man(a1-3)[Man(a1-2)Man(a1-6)]Man(a1-6)[Man(a1-2)Man(a1-2)Man(a1-3)]Man(b1-4)GlcNAc(b1-4)GlcNAc
# How it was run: as §1
# [40] = biological target: Neu5Ac(a2-3)Gal(b1-3)GlcNAc(b1-2)Man(a1-3)[Neu5Ac(a2-3)Gal(b1-3)GlcNAc(b1-2)Man(a1-6)]Man(b1-4)GlcNAc(b1-4)GlcNAc
# How it was run: as §1
# [41] = biological target: Neu5Ac(a2-3)Gal(b1-3)[Fuc(a1-4)]GlcNAc
# How it was run: as §1
# [42] = biological target: Neu5Ac(a2-3)Gal(b1-3)[Fuc(a1-4)]GlcNAc(b1-3)Gal(b1-4)[Fuc(a1-3)]GlcNAc
# How it was run: as §1
# [43] = biological target: Neu5Ac(a2-3)Gal(b1-3)[Neu5Ac(a2-6)]GalNAc
# How it was run: as §1
# [44] = biological target: Neu5Ac(a2-3)Gal(b1-4)GlcNAc(b1-2)Man(a1-3)[Neu5Ac(a2-3)Gal(b1-4)GlcNAc(b1-2)Man(a1-6)]Man(b1-4)GlcNAc(b1-4)[Fuc(a1-6)]GlcNAc
# How it was run: as §1
# [45] = biological target: Neu5Ac(a2-3)Gal(b1-4)GlcNAc(b1-3)Gal
# How it was run: as §1
# [46] = biological target: Neu5Ac(a2-3)Gal(b1-4)GlcNAc(b1-3)Gal(b1-3)GlcNAc
# How it was run: as §1
# [47] = biological target: Neu5Ac(a2-6)Gal(b1-4)GlcNAc(b1-2)Man(a1-3)[Neu5Ac(a2-3)Gal(b1-4)GlcNAc(b1-2)Man(a1-6)]Man(b1-4)GlcNAc(b1-4)GlcNAc
# How it was run: as §1
# [48] = biological target: Neu5Ac(a2-6)Gal(b1-4)GlcNAc(b1-2)[Neu5Ac(a2-6)Gal(b1-4)GlcNAc(b1-6)]Man(a1-6)[Neu5Ac(a2-6)Gal(b1-4)GlcNAc(b1-2)Man(a1-3)][GlcNAc(b1-4)]Man(b1-4)GlcNAc(b1-4)GlcNAc
# How it was run: as §1
# [49] = biological target: Neu5Ac(a2-6)Gal(b1-4)GlcNAc(b1-3)Gal(b1-4)GlcNAc
# How it was run: as §1
# [50] = biological target: Neu5Ac(a2-6)Gal(b1-4)GlcNAc(b1-6)[Gal(b1-3)]GalNAc
# How it was run: as §1
# [51] = biological target: Neu5Ac9Ac(a2-3)Gal(b1-3)GlcNAc
# How it was run: as §1
binder,measurement,setting,value
"SBA (Glycine max), P05046 (protein) MATSKLKTQNVVVSLSLTLTLVLVLLTSKANSAETVSFSWNKFVPKQPNMILQGDAIVTSSGKLQLNKVDENGTPKPSSLGRALYSTPIHIWDKETGSVASFAASFNFTFYAPDTKRLADGLAFFLAPIDTKPQTHAGYLGLFNENESGDQVVAVEFDTFRNSWDPPNPHIGINVNSIRSIKTTSWDLANNKVAKVLITYDASTSLLVASLVYPSQRTSNILSDVVDLKTSLPEWVRIGFSAATGLDIPGESHDVLSWSFASNLPHASSNIDPLDLTSFVLHEAI",glycan array binding signal (z-score),[1],-0.147
same,glycan array binding signal (z-score),[2],-0.072
same,glycan array binding signal (z-score),[3],-0.208
same,glycan array binding signal (z-score),[4],-0.266
same,glycan array binding signal (z-score),[5],-0.273
same,glycan array binding signal (z-score),[6],-0.199
same,glycan array binding signal (z-score),[7],-0.15
same,glycan array binding signal (z-score),[8],3.24
same,glycan array binding signal (z-score),[9],-0.048
same,glycan array binding signal (z-score),[10],-0.111
same,glycan array binding signal (z-score),[11],-0.268
same,glycan array binding signal (z-score),[12],-0.14
same,glycan array binding signal (z-score),[13],8.24
same,glycan array binding signal (z-score),[14],0.265
same,glycan array binding signal (z-score),[15],-0.309
same,glycan array binding signal (z-score),[16],-0.195
same,glycan array binding signal (z-score),[17],-0.147
same,glycan array binding signal (z-score),[18],-0.11
same,glycan array binding signal (z-score),[19],-0.171
same,glycan array binding signal (z-score),[20],-0.177
same,glycan array binding signal (z-score),[21],-0.215
same,glycan array binding signal (z-score),[22],-0.136
same,glycan array binding signal (z-score),[23],-0.133
same,glycan array binding signal (z-score),[24],0.044
same,glycan array binding signal (z-score),[25],5.43
same,glycan array binding signal (z-score),[26],4.56
same,glycan array binding signal (z-score),[27],6.24
same,glycan array binding signal (z-score),[28],5.16
same,glycan array binding signal (z-score),[29],4.2
same,glycan array binding signal (z-score),[30],5.15
same,glycan array binding signal (z-score),[31],4.99
same,glycan array binding signal (z-score),[32],9.42
same,glycan array binding signal (z-score),[33],3.67
same,glycan array binding signal (z-score),[34],-0.155
same,glycan array binding signal (z-score),[35],0.118
same,glycan array binding signal (z-score),[36],-0.163
same,glycan array binding signal (z-score),[37],-0.268
same,glycan array binding signal (z-score),[38],-0.143
same,glycan array binding signal (z-score),[39],-0.158
same,glycan array binding signal (z-score),[40],0.046
same,glycan array binding signal (z-score),[41],-0.108
same,glycan array binding signal (z-score),[42],-0.255
same,glycan array binding signal (z-score),[43],-0.167
same,glycan array binding signal (z-score),[44],-0.223
same,glycan array binding signal (z-score),[45],-0.392
same,glycan array binding signal (z-score),[46],-0.2
same,glycan array binding signal (z-score),[47],-0.112
same,glycan array binding signal (z-score),[48],-0.344
same,glycan array binding signal (z-score),[49],-0.103
same,glycan array binding signal (z-score),[50],-0.269
same,glycan array binding signal (z-score),[51],-0.185
